In the supplement of paper PMC11417369:
Some of the results follow.

These sequences were tested on PfAP2-HC AP2 domain (GST-tagged) (assay: gcPBM binding intensity (ln(normalized median fluorescence intensity)); higher = stronger DNA binding).
Outline: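 DNA-binding domains from P. falciparum, fused to GST and produced in E. coli, were put on an Agilent 4 × 180k double-stranded probe array for 1 h in 1× PBS holding 1% milk, 0.2 mg/ml BSA, 0.5% salmon testes DNA and 0.03% Triton X-100. Probes were primer-extended, 36 bp long and drawn from intergenic genomic regions, with negative controls included. After Alexa488 anti-GST antibody detection and a 488 nm scan, binding intensity was set as the highest Masliner-normalised natural-log median intensity across replicate spots of either probe orientation.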

Compared with “GTAAGAAACAGACACACACACATATATATATATATA [CACACA_site794]”, “GAACAGTTTGTTTAGTGTACTTTTTTTTTTTTTTTT [XGTACX_site8881]” is lower in “gcPBM binding intensity (ln)” value: 10.4 for the first, 9.48 for the second.

Going from “AATAATTTTATCGGTACACACTGTATGCATAATATT [CACACA_site4364]” to “CCTATAAATGCATTCACACATATATATTTATATTAT [CACACA_site6086]”, the “gcPBM binding intensity (ln)” value falls from 9.84 to 9.83.

Compared with “ATGTACAAAATAAGCACACACAAAAAAAAAAAAAAT [CACACA_site2998]”, “TCAAAAATAAAGATCACACATATATATATATATATA [CACACA_site4381]” is lower in “gcPBM binding intensity (ln)” value: 10.4 for the first, 9.73 for the second.

First: TCTAATTACAAAAACATACACACAAAAAAAAAAAAA [CACACA_site3783]
Second: AAATAAAAACCATATCGTACAAAAATTTTTGTATTT [XGTACX_site7497]
The “gcPBM binding intensity (ln)” value of the first is higher: 10.1 for the first, 9.68 for the second.

First: ATATATATATATATATGTACTTAAAAATTTGTTTTG [XGTACX_site1514]
Second: AAGTCAATTTTTTTTTTTTTTTTTTAACTTATTAAT [TGCATGCA_negctrl_site14]
The “gcPBM binding intensity (ln)” value of the first is higher: 9.5 for the first, 9.39 for the second.

Compared with “GATCACTGAATAAAGGCACACATCTGACTAATTTTT [CACACA_site66]”, “TCCTTAAAAATCTAAAAAGAAAAAAACATATATTTT [GTGCAC_negctrl_site123]” is lower in “gcPBM binding intensity (ln)” value: 9.78 for the first, 9.26 for the second.

Compared with “TATACCTATAAATACACACACATATATAAATATGTA [CACACA_site6625]”, “ATTATTATATATATAACACACATAATTATATACTTA [CACACA_site1563]” is lower in “gcPBM binding intensity (ln)” value: 9.96 for the first, 9.8 for the second.

First: TTAAAAAGTGCGTAGTGTACTAATATAAATAATACA [XGTACX_site2922]
Second: TGAATAAATATATATACACACCCATATATATATATA [CACACA_site8833]
The “gcPBM binding intensity (ln)” value of the first is higher: 9.92 for the first, 9.89 for the second.

Going from “AATGTATATAATATTAATATGTAAATATATAATCAA [CACACA_negctrl_site1683]” to “AACATATACCCAGGTACATGCAAATATATATATTAT [TGCATGCA_site878]”, the “gcPBM binding intensity (ln)” value falls from 9.7 to 9.68.

First: TTTAAAAATTAATTCTGTACACATTTTTATTTTATT [XGTACX_site8]
Second: TTCTTTCTTCAAAAGTGTACCAAATGTTAGAAAGGT [XGTACX_site4353]
The “gcPBM binding intensity (ln)” value of the first is higher: 9.77 for the first, 9.47 for the second.

Going from “ATATATATATATATGTGTACACAACAAAATAAAAAA [XGTACX_site7378]” to “AAAAAAATAACAAAATGTATACAATATAACAAAAAT [GTGCAC_negctrl_site512]”, the “gcPBM binding intensity (ln)” value falls from 10.1 to 9.92.

First: ATTCATTTCTATTTTACACACAATAAGTAACTTAAT [CACACA_site2850]
Second: CTCATCCTTACATACACACACATATATATATATATA [CACACA_site103]
The “gcPBM binding intensity (ln)” value of the first is lower: 9.97 for the first, 10.3 for the second.

Going from “ATATTTAAATCGAAGGTGCGTATTTCCTTTTTTTTT [GTGCAC_site9632]” to “ATATATACATATAACACACACATATATATATATATA [CACACA_site2575]”, the “gcPBM binding intensity (ln)” value rises from 9.7 to 10.1.

Compared with “AGTATAAATAAATCATAAACATATATATATATATAT [GTGCAC_negctrl_site356]”, “TTTATTTATTATTAAAGTACTAAATCATATTATTAT [XGTACX_site992]” is lower in “gcPBM binding intensity (ln)” value: 9.65 for the first, 9.55 for the second.

First: TTTTCTTTTTTCTGTTGTACTAAAAATAATTTTGTA [XGTACX_site5171]
Second: TATTTATATATTATGTGTCCACATGTAAGCTATCTT [XGTACX_site3887]
The “gcPBM binding intensity (ln)” value of the first is lower: 9.63 for the first, 9.64 for the second.

Going from “CCACTAATAAATATTACACACATATATATATATATT [CACACA_site3128]” to “TATACATTATCTTATGCATGCGCATCTGCATATAAA [TGCATGCA_site266]”, the “gcPBM binding intensity (ln)” value falls from 9.91 to 9.64.

Going from “ATTCACTAAAAAATTGCATGCAATAAATTTTTTTTT [TGCATGCA_site962]” to “TTTTATTGTTGTTATACACACCATATAAAATATTTC [CACACA_site4983]”, the “gcPBM binding intensity (ln)” value rises from 9.46 to 9.73.

First: AATTGATTTATATATTGTACATATAAATTTATGTAT [XGTACX_site7785]
Second: GGGAAAATAAATAAAGTGCAGATATTAAAAGTTGTA
The “gcPBM binding intensity (ln)” value of the first is lower: 9.75 for the first, 9.82 for the second.

Compared with “TTGCATATTTCTAATTGTACATTATTTTATTTTATA [XGTACX_site8451]”, “AATAAAAAATATATGAGTACTAAATTGTTTTCTTAA [XGTACX_site8573]” is lower in “gcPBM binding intensity (ln)” value: 9.79 for the first, 9.61 for the second.

First: CTCAACGATAGAGAAACATGCAAGTATAAGCAACTA [TGCATGCA_site771]
Second: ATATTTATCTTTTTATGTACATATGCCCCTTTTCTG [XGTACX_site673]
The “gcPBM binding intensity (ln)” value of the first is higher: 9.73 for the first, 9.7 for the second.

“GAGTTATTTCTTATTTAAGCATTCTACATATATATA [CACACA_negctrl_site239]” and “AAGAAAATTAAATTAACACACATAAATATATATATA [CACACA_site1664]” are the same in “gcPBM binding intensity (ln)” value: 9.79 for the first, 9.79 for the second.

First: ATTTTACATATTTGCACACATATATTTAAATACATA [CACACA_site4627]
Second: GTCCTTATGGATGATAAATTATTTTAAATATTCTAT [XGTACX_negctrl_site200]
The “gcPBM binding intensity (ln)” value of the first is higher: 9.94 for the first, 9.47 for the second.

Compared with “TCTTGGTTATTAAAAAAAAAAAAATATATTTTTCCT [TGCATGCA_negctrl_site445]”, “TCATATGTTTCATGTTGTACATTGAAAGTTTGGCTA [XGTACX_site3202]” is higher in “gcPBM binding intensity (ln)” value: 9.32 for the first, 9.36 for the second.

First: GTTCTAATATATTGCACACGTAAAAATATAGGTAAT [CACACA_site886]
Second: AAATATGTACATATTATATATATATAATATATATTG [TGCATGCA_negctrl_site438]
The “gcPBM binding intensity (ln)” value of the first is higher: 9.93 for the first, 9.65 for the second.

First: TGTTAATTAAAGGACTGTACACTAATAATTCTATAA [XGTACX_site5195]
Second: TAATTGTACGCCAATACACACAGAATTAGAATGTAG [CACACA_site102]
The “gcPBM binding intensity (ln)” value of the first is lower: 9.6 for the first, 9.93 for the second.

First: ATAAATAAATGGTGTTGTACTCTATTATATATATAT [XGTACX_site7835]
Second: AAAAAAAAAATATATATATATATATATATATAATTT [GTGCAC_negctrl_site32]
The “gcPBM binding intensity (ln)” value of the first is higher: 9.78 for the first, 9.4 for the second.

Compared with “AATAAATATAGATTCACACACAAACATATATAAATA [CACACA_site7814]”, “AAGAAAAAAATTTATACAAGAATTTTTTATTATTAA [TGCATGCA_negctrl_site587]” is lower in “gcPBM binding intensity (ln)” value: 10.1 for the first, 9.45 for the second.

First: AAAAAAAAAAAACACACACACACATAAATATATATA [CACACA_site149]
Second: TATTAACATATATAAAGTACATTAAACAACATTGTA [XGTACX_site7667]
The “gcPBM binding intensity (ln)” value of the first is higher: 10.6 for the first, 9.56 for the second.

Going from “TGTAAATTTGGCATCACACATAAATAAACATATAAA [CACACA_site4497]” to “AACATTCTAAAACACACACACACATATATATATATA [CACACA_site1052]”, the “gcPBM binding intensity (ln)” value rises from 9.74 to 10.7.

Going from “TACACAAGCGGACACACACACATATATATATATATA [CACACA_site4832]” to “TATATATAAAAAAGCACACATACATACATACATAAT [CACACA_site890]”, the “gcPBM binding intensity (ln)” value falls from 10.3 to 10.

Going from “TTTTCACTTTTAAAAACATGCATACTTTATAAAATA [TGCATGCA_site967]” to “ATGTCTATAATAAGAACACACATATATTTAATTTAA [CACACA_site7394]”, the “gcPBM binding intensity (ln)” value rises from 9.37 to 9.65.

Compared with “TGGTAAAGGAGCAAGATGATAAATCTCCATAACTTT [CACACA_negctrl_site492]”, “CTATATTCGTTTAATAGTACATATATAACTAGACAA [XGTACX_site5770]” is higher in “gcPBM binding intensity (ln)” value: 9.44 for the first, 9.45 for the second.

First: TATATATATATGTATACACACATACAAATATGTAAA [CACACA_site9238]
Second: GTTGGTACCTTACTTTTACACACTTTTTTTTTTTTT [CACACA_site8441]
The “gcPBM binding intensity (ln)” value of the first is lower: 9.74 for the first, 9.94 for the second.

Going from “AAAAGAAATATTTATACACACACACTAACATATATA [CACACA_site8580]” to “GTGAAAAAAAACATATGTACTTATACACTAATCTAT [XGTACX_site7600]”, the “gcPBM binding intensity (ln)” value falls from 10.7 to 9.73.

First: TTATATATAATTACATGTACGTAGTATTATTTAAAT [XGTACX_site3418]
Second: TTATCATTTTAATGGTGTACTCAATAAAAACTTTAA [XGTACX_site4595]
The “gcPBM binding intensity (ln)” value of the first is higher: 9.39 for the first, 9.13 for the second.

First: TACACAAGAAAATTCACACACACACCCATATATATA [CACACA_site3879]
Second: AACATACATGTATATAGTACATATTACATCTGATAC [XGTACX_site3649]
The “gcPBM binding intensity (ln)” value of the first is higher: 10.7 for the first, 9.84 for the second.

Going from “ATGTAATTATAAGATTAATATACATAATTATATGTA [GTGCAC_negctrl_site458]” to “CATAGATACATACACGCACACACATATATATATATA [CACACA_site13]”, the “gcPBM binding intensity (ln)” value rises from 9.57 to 10.3.

Going from “GTATTACCTTATTATTGTACTTTCATGATATATATG [XGTACX_site5382]” to “TTAATGAATGGACACACACACATATATATATATATT [CACACA_site5294]”, the “gcPBM binding intensity (ln)” value rises from 9.84 to 10.2.

First: ATAAAAAAAATTTGCACACCTTCAAAGTAATATATA [CACACA_site1584]
Second: TAATTTTTTTTTTTTTTTTTTGTACTTCATTTTTAT [CACACA_negctrl_site1395]
The “gcPBM binding intensity (ln)” value of the first is higher: 9.8 for the first, 9.58 for the second.

Compared with “AAAAAAAAAAAAAGTACATGCAATATGGATCTTAAA [TGCATGCA_site367]”, “CATATAAAAGGACACACACACACATATAAATATGTA [CACACA_site6568]” is higher in “gcPBM binding intensity (ln)” value: 9.74 for the first, 10.4 for the second.

First: TGCTATTTTATTTATTCTTTTATAAAAGTATAATAT [XGTACX_negctrl_site358]
Second: ATTTTTATAGAATGAACACACATATTATAGCATTTA [CACACA_site6842]
The “gcPBM binding intensity (ln)” value of the first is lower: 9.64 for the first, 9.67 for the second.

First: ATTATAATGTTAATGTGTACATATGATTCCTTAATT [XGTACX_site181]
Second: TATGTTTTTACATATTGTACATATTCTTGTAATACG [XGTACX_site1179]
The “gcPBM binding intensity (ln)” value of the first is higher: 9.71 for the first, 9.66 for the second.

Going from “TATGTGTGCAAAAACTGTACACATTAAAGGTATATA [XGTACX_site7627]” to “ATAAATAAATAAGTACATATATATATGTATATATAT [TGCATGCA_negctrl_site223]”, the “gcPBM binding intensity (ln)” value falls from 10.1 to 9.84.

Compared with “ATGACATGTTCTAAATGTACATTTTTTAACCCTTTT [XGTACX_site1858]”, “TATGGTTACATTATATGTACTAAACGAATATTTTTA [XGTACX_site5694]” is lower in “gcPBM binding intensity (ln)” value: 9.68 for the first, 9.57 for the second.
